From the supplement of paper PMC10338343
± gives the standard deviation. This is a selection; strong and weak results do not stand in their true shares.

The sequences below were run on MIWI (PIWIL1) piRISC loaded with piRNA #1 (30 nt) (assay: pre-steady-state target cleavage rate (min^-1); MIWI and MILI are mouse PIWI proteins and EfPiwi is from a freshwater sponge; tags in brackets are library labels; higher = faster piRNA-guided slicing of the target). Settings: guide: piRNA #1 5'p-UGAGGUAGUAGGUUGUAUAGUAUCCAGAGG; auxiliary factor: 500 nM mouse GTSF1.
How it was run: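 The pre-steady-state cleavage rate came from a burst-and-steady-state fit to pooled data from three Cleave-'n-Seq trials, in which uncleaved targets were sequenced and normalised to depth and to weakly complementary targets. Each reaction held 0.1 nM transcribed, DNA-blocked target RNA library and 1 nM active affinity-purified piRISC carrying one synthetic guide, with or without 500 nM GTSF1 partner protein, in HEPES–potassium acetate buffer at 33 °C for 0–8 or 0–960 min. k3 was capped at 0.0001 min^-1.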

Sequence | pre-steady-state target cleavage rate
GGAGUGGUACUAUACAACCUACUACCUCA | 1.42 ± 0.084
GGAGACCAUACUAUACAUCCUACUACCUGA | 0.856 ± 0.054
GGUCUGGAUACUAAACAACCUACUAGCUCA | 0.198 ± 0.03
CCUCAGGUUACUAUACAACCUACUACCUCA | 2.5 ± 0.16
GGAGACGAUACUAUACAACCUACUACUUCA | 1.74 ± 0.11
CCUCAGGAUACUAUACAACCAACUACCUCA | 0.175 ± 0.02
GGAGUGGAUACUAUUCAUCCUACUACCUCA | 1.04 ± 0.059
GGAGACGAUACUUUACAACCUACUACCUGA | 0.496 ± 0.085
CGUCUGGAUACUAUACAACCUACUAGCUCA | 0.396 ± 0.06
GGAGACGAUUCUAAACAACCUACUACCUCA | 0.91 ± 0.1
GGAGUGGUUACUAUACUACCUACUACCUCA | 1.33 ± 0.11
GGUCUGGAUACUAUAACAACCUACUACCUCA | 1.69 ± 0.12
GGAGACGAUACUAUCCAACCUACUACCUCA | 1.45 ± 0.08
GGAGACGUUAGUAUACAACCUACUACCUCA | 0.549 ± 0.049
GGAGUCGAUACUAUACAACCUACUUCCUCA | 0.244 ± 0.043
GGAGAGGAUACUAUACUACCUACUACCACA | 1.05 ± 0.07
GGAGUGGAUACUAAACAACCUACUACGUCA | 0.343 ± 0.033
GGAGACCUAACUAUACAACCAACUAGCUCA | 0.00428 ± 0.0038
GGAGACCUUACUAUACAACCUACUAGGAGA [g6:g22:cont:t1A] | 0.0657 ± 0.013
GGAGACCUAACUAUACUACCUAGUACCUCA | 0.0189 ± 0.0053

Sequence | pre-steady-state target cleavage rate
GGAGACCAUACUAUACAACCUACUAGCUGA | 0.0865 ± 0.023
GGUCUGGAUAGUUUACAACCUACUACCUCA | 0.928 ± 0.076
CCUCUCGAUACUAUACAACGUACUACCUCA | 1.41 ± 0.076
GGAGACCAUACUAAACAACCUACAACCUCA | 0.378 ± 0.05
GGAGACCUAACUAUACAUCCUAGUACCUCA | 0.157 ± 0.027
GGAGACCUUACUAUACAACCUACAUCCUCA | 0.298 ± 0.021
GGUCUGGAUACUAUACAACCUACUACUCA | 0.315 ± 0.043
GGACUGGAUACUAUACAAGCUACUAGCUCA | 0.0867 ± 0.019
GGACUGGAUAAUAUACAACCUACUACCUCA | 1.55 ± 0.12
GGAGACCUAUCUAUACAAGCUACUACCACA | 0.48 ± 0.039
GCUCUGGAUACUAUACAACCUACUAGGUCA | 0.0149 ± 0.0059
GGAGACCUAUCUAAACAACCUACUAGCUCA | 0.00614 ± 0.0032
CCUCUGCAUACUUUACAACCUACUACCUCA | 2.13 ± 0.15
GGAGAGGUUUCUAUACAACCUACUACCUCA | 1.32 ± 0.076
GGAGACCUAACAAUACAACCUUCUACCUCA | 0.00738 ± 0.0048
CCUCUGGAUACUAUACAACCAACUACCUGA | 0.0876 ± 0.014
GGAGUGGAUACUUUACAACCUACUACCUGA | 0.297 ± 0.05
GCUCUGGAUACUAUACAACCUACUUGCUCA | 0.942 ± 0.12
GGAGAGGAUACUAUACUACCUACAACCUCA | 0.41 ± 0.043
GCUCUGGAUACUAUAGAAGCUACUACCUCA | 0.341 ± 0.033
